Substitutions are numbered along the chain they refer to. Names and notes keep the numbering of the source. These are yes or no findings as the source states them, for the method shown. In cells and extracts the contact can be indirect. Some results given as binding are weak or reduced against the parent protein; the word gives no strength. Sequences can lack the tags named with a protein.
T1: Scc1-PK (S. cerevisiae) (UniProt Q12158)
T1 sequence: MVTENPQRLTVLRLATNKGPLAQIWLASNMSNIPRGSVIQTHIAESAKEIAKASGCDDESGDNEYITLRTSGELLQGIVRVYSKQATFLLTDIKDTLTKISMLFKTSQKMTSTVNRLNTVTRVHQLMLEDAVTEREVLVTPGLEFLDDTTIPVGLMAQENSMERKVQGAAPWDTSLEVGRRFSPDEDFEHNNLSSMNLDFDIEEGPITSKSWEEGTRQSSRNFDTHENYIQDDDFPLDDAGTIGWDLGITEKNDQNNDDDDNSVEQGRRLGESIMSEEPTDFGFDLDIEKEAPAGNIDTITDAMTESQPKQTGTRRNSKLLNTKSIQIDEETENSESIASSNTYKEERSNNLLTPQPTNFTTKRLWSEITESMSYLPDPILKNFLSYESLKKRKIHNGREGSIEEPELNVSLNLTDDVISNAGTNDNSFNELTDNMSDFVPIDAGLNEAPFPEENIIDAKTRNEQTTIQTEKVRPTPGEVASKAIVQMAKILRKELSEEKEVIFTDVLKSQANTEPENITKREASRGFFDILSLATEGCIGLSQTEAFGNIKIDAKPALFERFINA

B1: Scc2-6xFLAG (protein, UniProt Q04002 1-1493)
chain: MSYPGKDKNIPGRIIEALEDLPLSYLVPKDGLAALVNAPMRVSLPFDKTIFTSADDGRDVNINVLGTANSTTSSIKNEAEKERLVFKRPSNFTSSANSVDYVPTNFLEGLSPLAQSVLSTHKGLNDSINIEKKSEIVSRPEAKHKLESVTSNAGNLSFNDNSSNKKTKTSTGVTMTQANLAEQYLNDLKNILDIVGFDQNSAEIGNIEYWLQLPNKKFVLTTNCLTKLQMTIKNITDNPQLSNSIEITWLLRLLDVMVCNIKFSKSSLKMGLDDSMLRYIALLSTIVLFNIFLLGKNDSNLHRESYIMEPVNFLSDLIESLKILTIEYGSLKIEFDTFQEALELLPKYIRNGPFLDDNVTAKLVYIFSDLLMNNDIEATTNIQFQSFWDNVKRISSDILVSLFGSFDQQRGFIIEELLSHIEKLPTKRIQKKLRKVGNQNIYITDFTFTLMSMLENINCYSFCNQMKDIAPENIDLLKNEYKKQEEFLFNIVEHINDTILERFFKNPSALRYVIDNFVQDLLLLISSPQWPVTEKILSSLLKRLLSVYSPSMQVSANIETICLQLIGNIGSTIFDIKCSTRDHEDNNLIKMINYPETLPHFFKSFEECIAYNETIKCRRSATRFLWNLRLGTILILEEYTKDAKEQIITVDNELKKILEQIKDGGLGPELENREADFSTIKLDYFSILHAFELLNLYDPYLKLILSLLAKDKIKLRSTAIKCLSMLASKDKVILSNPMVKETIHRRLNDSSASVKDAILDLVSINSSYFEFYQQINNNYNDDSIMVRKHVLRINEKMYDETNDIVTKVYVIARILMKIEDEEDNIIDMARLILLNRWILKVHEVLDQPEKLKEISSSVLLVMSRVAIMNEKCSQLFDLFLNFYLLNKEAHSKEAYDKITHVLTILTDFLVQKIVELNSDDTNEKNSIVDKQNFLNLLAKFADSTVSFLTKDHITALYPYMVSDEKSDFHYYILQVFRCTFEKLANFKQKFLYDLETTLLSRLPKMNVREIDEAMPLIWSVATHRHDTARVAKACSSCLSHLHPYINKANNEEAAIVVDGKLQRLIYLSTGFARFCFPKPSNDKIAFLQEGETLYEHITKCLLVLSKDKITHVIRRVAVKNLTKLCGNHPKLFNSRHVLHLLDKEFQSDQLDIKLVILESLYDLFLLEERKSVRNTGVNSTLSSNSILKKKLLKTNRVEFANDGVCSALATRFLDNILQLCLLRDLKNSLVAIRLLKLILKFGYTNPSHSIPTVIALFASTSQYIRHVAYELLEDLFEKYETLVFSSLSRGVTKAIHYSIHTDEKYYYKHDHFLSLLEKLCGTGKKNGPKFFKVLKRIMQSYLDDITDLTSTNSSVQKSIFVLCTNISNITFVSQYDLVSLLKTIDLTTDRLKEVIMDEIGDNVSSLSVSEEKLSGIILIQLSLQDLGTYLLHLYGLRDDVLLLDIVEESELKNKQLPAKKPDISKFSAQLENIEQYSSNGKLLTYFRKHVKDT
B2: Scc2 D369C T1175C (natural protein, S. cerevisiae, UniProt Q04002 1-1493, looked up)
chain: B1 chain with D369C, T1175C
notes: Scc2, S. cerevisiae; source: S. cerevisiae W303, late G1 arrested cells, whole-cell extract

Molecular target: T1, Scc1-PK (S. cerevisiae)
Test: co-IP; Scc1-PK immunoprecipitated with anti-PK from whole-cell extracts of cross-linker-treated yeast cells (exponentially grown or late G1 arrested); co-precipitated Smc3-HA, Smc1-Myc or Scc2-FLAG detected by western blot

Row | Binder | binding
1 | B1 | binds
2 | B2 | binds

Source: paper PMC10516938, “Conformational dynamics of cohesin/Scc2 loading complex are regulated by Smc3 acetylation and ATP binding” (Nature Communications, 2023)
